Data published in PubChem BioAssay AID651820 (National Center for Advancing Translational Sciences (NCATS), 2012).
Where “and” joins values, the source holds several entries; their conditions need not be identical. Equal entries are not always repeated. Hit rate of the full screen: of about 340,000 compounds, about 12,000 (3.5%) were called active. Inconclusive means that the source gave no clear call. Such entries were picked first, then a sample of the others. Calls come from the whole dose curve; as a rule, active = well fitted inhibition curve with a large enough effect; inconclusive = small, poorly fitted or top-dose-only effect, or another doubt; inactive = no such curve, though single readings can be large or run the other way. Where the call is inconclusive, the potency comes from a doubtful curve fit.

Test: qHTS Assay for Inhibitors of Hepatitis C Virus (HCV)
Conditions: Huh7.5.1 HCVcc-Cre (HCVcc is cell-culture hepatitis C virus) infection, luciferase reporter, 44 h; activity change, negative = inhibition: at 41.8 µM (top of the series)
Summary of the method: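 Antiviral activity was scored by luciferase reporter output from cells infected with HCVcc-Cre (~0.5 moi) in presence of compound, 44 h infection period, cells seeded 1,000/well 4 h prior.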
% is set by controls: 0 for no effect and ±100 for the full control effect; potency is the fitted concentration of half-maximal effect; tags give direction and shape of the fitted curve.

Compound | Potency | activity change, negative = inhibition
COc1ccc(OC(=O)c2cnn(-c3ccccc3)c2C)cc1 | inconclusive: 22.4 µM [inhibitor, single point] | 
O=C(c1ccc(=O)oc1)N1CCN(C(c2ccccc2)c2ccccc2)CC1 | inconclusive: 1.12 µM [inhibitor, full curve] | 
Cc1onc(-c2ccccc2)c1-c1nnc(-c2ccccc2C(F)(F)F)o1 | inconclusive: 7.08 µM [inhibitor, partial curve] | 
CC1CCc2nc3ccccc3c(C(=O)OCC(=O)NC3CCS(=O)(=O)C3)c2C1 (configuration not stated) | active: 10 µM | 
COc1ccc(-c2noc(CCC(=O)Nc3cccnc3)n2)cc1 | inconclusive: 3.55 µM [inhibitor, single point] | 
C/C(=N\NC(=S)NCc1ccccc1)c1ccc(C)o1 | inconclusive: 8.91 µM [inhibitor, partial curve] | 
CNC(=S)/N=C/NOCc1ccc(Cl)cc1Cl | inconclusive: 12.6 µM [inhibitor, partial curve] | 
CCN1C(=O)c2cccc3c(N)ccc1c23 | inconclusive: 22.4 µM [inhibitor, single point] | 
c1ccc2c(Nc3nc(-c4ccncc4)nc4ccccc34)cccc2c1 |  | inconclusive: -75.7% [inhibitor]
COC(=O)c1sccc1S(=O)(=O)Nc1ccc(C)cc1 |  | inactive: 14.2%
O=C(C1=C[C@@H]2[C@H]3C(=O)N(c4ccc(Cl)cc4)C(=O)[C@H]3[C@@H](C(=O)c3ccc(Cl)cc3)N2C=C1)c1ccccc1 |  | inactive: -11.1%
O=C(/C=C1\NC2(CCCC2)Cc2ccccc21)C(=O)N/N=C/c1ccccc1O | inconclusive: 6.31 µM [inhibitor, partial curve] | 
C=CCn1c(SCC(=O)Nc2sccc2C(N)=O)nc2sc(C)c(C)c2c1=O | inactive and inconclusive: 10 µM [inhibitor, partial curve] | 
COc1ccc(/C(N)=N/OC(=O)c2ccco2)cc1OC | inconclusive: 22.4 µM [inhibitor, single point] | 
N#Cc1c(NC(=O)CSc2nc(-c3ccco3)cc(C(F)(F)F)n2)sc2c1CCCC2 | inconclusive: 31.6 µM [inhibitor, single point] | 
CCN1CC=C2C(C#N)=C(N)C(C#N)(C#N)C(c3cc(Cl)ccc3Cl)C2C1 (configuration not stated) | inconclusive: 31.6 µM [inhibitor, single point] | 
C=CCNC(=O)c1ccc2c3n(nc2c1)-c1ccc(C)cc1CO3 | inconclusive: 8.91 µM [inhibitor, partial curve] | 
Cc1ccc(C(=O)N2CCN(Cc3ccc4c(c3)OCO4)CC2)cc1[N+](=O)[O-] | inconclusive: 22.4 µM [inhibitor, single point] | 
CC(Oc1cccc(Cl)c1)C(=O)Nc1ccncc1 (configuration not stated) | inconclusive: 11.2 µM [inhibitor, partial curve] | 
NC(=O)C1(N2CCCCC2)CCN(Cc2ccc(Br)cc2)CC1 | inconclusive: 31.6 µM [inhibitor, single point] | 
Cc1cccc(C)c1OCC(=O)Nc1cc(Cl)ccc1-n1cncn1 | inconclusive: 2.82 µM [inhibitor, partial curve] | 
COc1ccc(C)cc1S(=O)(=O)N(C)CC(=O)Nc1ccc2c(c1)OCCO2 | inconclusive: 11.2 µM [inhibitor, single point] | 
CCOc1cc(CNCCO)c(Cl)cc1OCC(=O)NCCc1ccccc1 | inconclusive: 4.47 µM [inhibitor, partial curve] | 

Compound | Potency | activity change, negative = inhibition
Cc1sc2nc(CN3CCCCC3)nc(Cl)c2c1C | inconclusive: 31.6 µM [inhibitor, single point] | 
Cc1ccc(NS(=O)(=O)c2ccc(NC(=O)c3ccc(Br)o3)cc2)c(C)c1 | active: 12.6 µM | 
Cc1ccc(NC(=O)c2cc(S(=O)(=O)N3CCc4ccccc43)cn2C)cc1C | inconclusive: 10 µM [inhibitor, partial curve] | 
Cc1nn(CC(=O)N2CCN(C)CC2)c(=O)c2ccccc12 |  | inactive: 15.3%
O=C(O)c1ccc(N/N=C/c2ccc(OC(=O)c3cccc(Cl)c3)cc2)cc1 |  | inactive: 5.97%
COC(=O)C1=C(c2ccc3ccccc3c2)C[C@@H]2CC[C@H]1N2C(=O)NC1CCCCC1 | inconclusive: 11.2 µM [inhibitor, single point] | 
CC(C)CC(NC(=O)c1ccc(Cl)cc1)C(=O)OCc1cc([N+](=O)[O-])cc2c1OCOC2 (configuration not stated) | inconclusive: 11.2 µM [inhibitor, single point] | 
CCCc1cc(=O)oc2cc(OC(C)C(=O)NCC3CCC(C(=O)O)CC3)ccc12 (configuration not stated) |  | inactive: -7.05%
COc1cccc2c1C(=O)c1c(O)c3c(c(O)c1C2=O)C[C@](O)(C(C)=O)C[C@H]3O[C@@H]1C[C@@H](N)[C@@H](O)[C@@H](C)O1 | active: 10 µM and active: 8.91 µM | 
COc1ccc2nc(NC(=O)Nc3ccccc3OC)sc2c1 | inconclusive: 2.82 µM [inhibitor, partial curve] | 
CC(C)C[C@H]1CN=C(Nc2ccccc2)N1CCc1ccc(F)cc1 | inconclusive: 10 µM [inhibitor, partial curve] | 
COCc1nnc(NC(=O)c2ccc(S(=O)(=O)N3CCCc4ccccc43)cc2)o1 | active: 12.6 µM | 
CCC(C)OC(=O)c1[nH]c2c(c1C)C(=O)CC(c1ccc(N(C)C)cc1)C2 (configuration not stated) | inconclusive: 10 µM [inhibitor, partial curve] | 
O=C(/C=C/c1ccc2c(c1)OCO2)Nc1nc(-c2ccccc2)cs1 | active: 6.31 µM | 
O=C(NCCc1ccc(Cl)cc1)C1CC(=O)N(CCc2ccccc2)C1 (configuration not stated) |  | inactive: -1.84%
COc1ccc(C2=NOC(Cn3nc(C(=O)NCc4cccs4)cc3-c3ccccc3)C2)cc1 (configuration not stated) | active: 10 µM | 
COc1cccc(CN2CCC(n3nccc3NC(=O)CCOc3ccccc3)CC2)c1O | inconclusive: 12.6 µM [inhibitor, single point] | 
CCN(c1ccccc1)S(=O)(=O)c1ccc(C(=O)Nc2ccccn2)cc1 | inconclusive: 12.6 µM [inhibitor, partial curve] | 
CCOc1ccc(NC(=NCc2ccc3c(c2)OCO3)SC2CC(=O)N(c3ccccc3)C2=O)cc1 (configuration not stated) | inconclusive: 2.24 µM [inhibitor, single point] | 
NC(=O)c1ccsc1NC(=O)CCS(=O)(=O)c1ccc(Cl)cc1 |  | inactive: 10.2%
CC[C@]12c3[nH]c4cc(-c5ccco5)ccc4c3CCN1C(=O)[C@@H](CC(=O)NCCC1=CCCCC1)C[C@@H]2C(=O)N1CCN(C(=O)C2CC2)CC1 | inconclusive: 15.8 µM [inhibitor, single point] | 
COc1cc(CNCc2cccc(OC)c2OC)cc(OC)c1 | inconclusive: 22.4 µM [inhibitor, single point] | 
O=C(C1=C[C@H](c2ccc3c(c2)OCO3)C[C@H](OCc2ccc(CO)cc2)O1)N1CCCCCCC1 |  | inactive: 35.1% [at 8.37 µM]

Compound | Potency | activity change, negative = inhibition
CCN1C(=O)c2ccc(C(=O)Nc3cccc(C(=O)O)c3)cc2C1=O |  | inactive: 28%
CCc1ccc(CNc2ccc(N3CCN(C(C)=O)CC3)cc2)cc1 | inconclusive: 22.4 µM [inhibitor, single point] and inconclusive: 31.6 µM [inhibitor, single point] | 
COC(=O)c1ccc2c(c1O)C(=O)c1ccccc1C2=O | inconclusive: 22.4 µM [inhibitor, single point] | 
N#CC1=C(N)OC2=C(CCc3ccccc32)C1c1ccccc1Cl (configuration not stated) | inconclusive: 11.2 µM [inhibitor, partial curve] | 
CCCCn1c(SCC(=O)NNC(=O)c2ccco2)nnc1-c1ccco1 |  | inactive: -1.58%
COc1ccc(-c2[nH]ncc2N=Nc2ccccc2)cc1 | inconclusive: 8.91 µM [inhibitor, partial curve] | 
CCCOc1nc2c(c(=O)n(C)c(=O)n2C)n1Cc1cccc2ccccc12 | inconclusive: 10 µM [inhibitor, partial curve] | 
CCCN(CCC)S(=O)(=O)c1ccc(C(=O)Nc2nc(-c3ccccc3)c(C(=O)OCC)s2)cc1 | inconclusive: 5.01 µM [inhibitor, single point] | 
O=C1OC(CO)CN1Cc1ccccc1 (configuration not stated) |  | inactive: 33.5%
Cc1cccc(C(=O)NCC(c2ccco2)N2CCc3ccccc32)c1 (configuration not stated) | inconclusive: 10 µM [inhibitor, single point] | 
Cc1ccc(S(=O)(=O)N(C)C)cc1NC(=O)c1ccc(OC(F)(F)F)cc1 |  | inactive: 0.313%
C=CCn1c(SCc2nc3cc(C(=O)OC)ccc3c(=O)[nH]2)nc2sc(CC)cc2c1=O | inconclusive: 31.6 µM [inhibitor, single point] | 
COc1ccc(Cn2c(=O)[nH]c3cc(C(=O)Nc4ccccc4C)ccc32)cc1 |  | inactive: -0.364%
CCOC(=O)C1CCCCN1C(=O)/C(=C/c1ccc(OC)cc1)c1ccc(OC)c(OC)c1 (configuration not stated) |  | inactive: 12%
COc1ccc(OC)c(NC(=O)c2ccccc2SC)c1 | active: 8.91 µM | 
Cc1c(C2(O)CCCCC2)[nH]c2ccc(C(F)(F)F)cc12 | inconclusive: 11.2 µM [inhibitor, single point] | 
N#CCOc1ccccc1/C=C/c1nc2ccccc2c(=O)[nH]1 |  | inactive: -8.58%
NNc1cccc(C=Cc2ccccc2)cc1=O | inconclusive: 31.6 µM [inhibitor, single point] | 
CCOC(=O)C1=NNC(C(=O)c2ccc(OC)cc2)C1c1ccccc1 (configuration not stated) |  | inactive: -11.9%
C/C(=N\NC(=O)c1ccc(F)cc1)c1cccc(NC(=O)c2ccco2)c1 | inconclusive: 31.6 µM [inhibitor, single point] | 
COc1ccc(OC)c(/C=N/NC(=O)c2cc3c(OC)cc(OC)cc3[nH]2)c1 | active: 25.1 µM | 
